# PubChem BioAssay AID651820 (National Center for Advancing Translational Sciences (NCATS), 2012)
# In all, about 340,000 compounds went through this assay and about 12,000 (3.5%) were called active. The inconclusive results got no clear call from the source; some entries with a clear call stand among them for comparison. Calls come from the whole dose curve; as a rule, active = well fitted inhibition curve with a large enough effect; inconclusive = small, poorly fitted or top-dose-only effect, or another doubt; inactive = no such curve, though single readings can be large or run the other way. No potency is given beside an inconclusive call; the fits are too rough.
# Experiment: qHTS Assay for Inhibitors of Hepatitis C Virus (HCV)
# Details: Huh7.5.1 HCVcc-Cre (HCVcc is cell-culture hepatitis C virus) infection, luciferase reporter, 44 h; activity change, negative = inhibition: at 41.8 µM (top of the series) unless noted
# How it was run: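 HCVcc-Cre virus at an moi near 0.5 was added right after compound to cells cultured 4 h from seeding (1,000 cells/well). Luciferase activity was determined 44 h later, 15 min after substrate addition at RT.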
# % is set by controls: 0 for no effect and ±100 for the full control effect; potency is the fitted concentration of half-maximal effect; tags give direction and shape of the fitted curve.
Compound,Potency,"activity change, negative = inhibition"
Cc1cccc(Nc2nnc(SCC(=O)NC3CCCc4ccccc43)s2)c1 (configuration not stated),"inconclusive [inhibitor, single point]",
COC(=O)c1cc(-c2ccc(Cl)cc2)n[nH]1,,inactive: 3.59%
CCCCCCOC(=O)C(C#N)c1nc2ccccc2nc1N1CCN(C)CC1 (configuration not stated),"inconclusive [inhibitor, partial curve]",
C=CCn1c(SCC(=O)c2ccc(Cl)s2)nc2ccccc2c1=O,"inconclusive [inhibitor, single point]",
O=C(CSC1=NC2(CCCCCC2)N=C1c1ccccc1)Nc1ccc2c(c1)OCCO2,"inconclusive [inhibitor, single point]",
CN(C(=O)CSc1ncnc2sc(-c3ccccc3)cc12)C1CCS(=O)(=O)C1 (configuration not stated),"inconclusive [inhibitor, partial curve, poor fit]",
CCC/C(O)=C1\C(=O)CC(c2ccccc2)CC1=NCCc1c(C)[nH]c2ccccc12 (configuration not stated),"inconclusive [inhibitor, single point]",
Cc1cc(C)cc(OC(C)C(=O)Nc2ccccc2C(=O)NCc2cccnc2)c1 (configuration not stated),"inconclusive [inhibitor, single point]",
Cc1ccc(CN2CC[C@H]3C=CCc4cccc(c43)C2)cc1,"inconclusive [inhibitor, partial curve]",
CN1CCCC1c1cccnc1 (configuration not stated),,inactive: 10.8%
COc1c(C)cc(C(=O)C2CCCN(C(=O)c3csc(C)n3)C2)cc1C (configuration not stated),"inconclusive [inhibitor, single point]",
CN1CCC2(CC1)Nc1nc(SCc3ccc(Cl)cc3)nn1C1=C2CN(C)CC1,active: 14.1 µM,
Cc1ccc(CN2CCC(c3cc(-c4ccc(Cl)cc4)n[nH]3)CC2)cc1,active: 12.6 µM,
COc1ccc2nc(SC(C)C(=O)NCC(=O)Nc3ccc(F)c(F)c3F)[nH]c2c1 (configuration not stated),,inactive: 17.2%
O=C(Nc1ccccc1)c1ccc(-c2ccccc2C(F)(F)F)o1,"inconclusive [inhibitor, single point]",
COc1ccc(N(CC(=O)N2CCN(Cc3ccccc3)CC2)S(=O)(=O)c2ccccc2)cc1,,inactive: 17.6%
CCC(C)Nc1c2c(nc3c(-c4ccccc4)c(C)nn13)CCC2 (configuration not stated),active: 2.24 µM,
O=C(NC1(Cc2ccccc2)CCN(Cc2ccc(-c3ccccc3)cc2)C1=O)c1ccccc1 (configuration not stated),"inconclusive [inhibitor, partial curve]",
CN(C)C(=O)c1ccc(NC(=O)c2cccc(S(=O)(=O)N3CCN(Cc4ccccc4)CC3)c2)cc1,"inconclusive [inhibitor, single point]",
Cc1ccc(NC(=O)CCl)cc1S(=O)(=O)N1CCCCCC1,"inconclusive [inhibitor, single point]",
CN1CCCC(n2nc(Cc3ccc(Cl)cc3)c3ccccc3c2=O)CC1 (configuration not stated),"inconclusive [inhibitor, single point]",

Compound,Potency,"activity change, negative = inhibition"
O=C(Nc1ccc(Br)cc1)c1cccc(S(=O)(=O)Nc2cnc3ccccc3c2)c1,"inconclusive [inhibitor, single point]",
Cc1nn(CCC#N)c(NC(=O)c2ccc(Cl)cc2Cl)c1P(=O)(Nc1ccc([N+](=O)[O-])cc1)N1CCOCC1 (configuration not stated),,inactive: 23.3%
CCOC(=O)N/N=C/c1cc(C)n(-c2ccccc2)c1C,"inconclusive [inhibitor, single point]",
Clc1nssc1=Nc1ccc(Br)cc1,"inconclusive [inhibitor, single point]",
Cc1c(NS(=O)(=O)c2cccc(C(=O)Nc3ccc(SC(F)F)cc3)c2)c(=O)n(-c2ccccc2)n1C,"inconclusive [inhibitor, partial curve]",
Cc1cc(N2CCCC2=O)ccc1S(=O)(=O)Nc1c(C)nn(C)c1C,"inconclusive [inhibitor, partial curve]",
COc1cccc(-n2c(SCC(=O)NC3CCCCC3)nc3n[nH]c(C)c3c2=N)c1,"inconclusive [inhibitor, partial curve]",
CN(C)S(=O)(=O)c1ccc(NC(=O)CSc2nc3ccccc3n2-c2ccccc2)cc1,"inconclusive [inhibitor, partial curve]",
COc1ccc(-c2cc(C(F)(F)F)n3nc(C(=O)N4CCN5CCCC5C4)cc3n2)cc1OC (configuration not stated),"inconclusive [inhibitor, partial curve]",
COc1cc(C(=O)COC(=O)c2c(C)noc2C)cc(OC)c1OC,,inactive: -24.6%
C[C@H](CO)N1C[C@H](C)[C@@H](CN(C)S(=O)(=O)c2ccc(F)cc2)Oc2ccc(NC(=O)Cc3ccccc3)cc2C1=O,,inactive: -8.76%
O=C(Nc1ccccc1)ON=C1CCCC1,,inactive: 12.1%
C[C@H](NC(=O)c1ccc2ccccc2c1)C(=O)N1CCC2(CC1)NCCc1[nH]cnc12,"inconclusive [inhibitor, single point]",
O=C(COC(=O)c1cc[n+]([O-])cc1)Nc1cccc(Br)c1,"inconclusive [inhibitor, single point]",
COc1ccc(C2Nc3ccccc3C(=O)N2NS(=O)(=O)c2ccc(C)cc2)cc1OC (configuration not stated),"inconclusive [inhibitor, full curve]",
COc1ccc2c(c1)cc(C)c1nnc(SCC(=O)N(C)c3nc(-c4ccccc4)cs3)n12,"inconclusive [inhibitor, single point]",
c1ccc(C(c2ccccc2)N2CCN(Cc3nnnn3C3CCCCC3)CC2)cc1,"inconclusive [inhibitor, full curve]",
Cc1ccc(Oc2ccc(S(=O)(=O)N3CCOCC3)cc2C(N)=O)c(-n2nc3ccccc3n2)c1,,inactive: -14.3%
COc1ccc(CNC(=O)Cn2cnc3c(SC)nc(N)nc32)cc1,active: 8.91 µM,
CCCCc1cc(=O)oc2cc(O)cc(O)c12,"inconclusive [inhibitor, single point]",
COc1ccc(OC)c(NC(=O)c2cc3n(n2)C(C(F)(F)F)CC(c2ccc4c(c2)OCO4)N3)c1 (configuration not stated),active: 31.6 µM,
